# Test results published in the supplement of paper PMC3334620.
# The full ranking holds about 33,000 sequences; the median of “E-score (-0.5 to 0.5)” is about -0.041, and the highest 2% start at about 0.37. Some of the results follow.
# Target: T1, Ecm22 (UniProt Q05958)
# T1 sequence: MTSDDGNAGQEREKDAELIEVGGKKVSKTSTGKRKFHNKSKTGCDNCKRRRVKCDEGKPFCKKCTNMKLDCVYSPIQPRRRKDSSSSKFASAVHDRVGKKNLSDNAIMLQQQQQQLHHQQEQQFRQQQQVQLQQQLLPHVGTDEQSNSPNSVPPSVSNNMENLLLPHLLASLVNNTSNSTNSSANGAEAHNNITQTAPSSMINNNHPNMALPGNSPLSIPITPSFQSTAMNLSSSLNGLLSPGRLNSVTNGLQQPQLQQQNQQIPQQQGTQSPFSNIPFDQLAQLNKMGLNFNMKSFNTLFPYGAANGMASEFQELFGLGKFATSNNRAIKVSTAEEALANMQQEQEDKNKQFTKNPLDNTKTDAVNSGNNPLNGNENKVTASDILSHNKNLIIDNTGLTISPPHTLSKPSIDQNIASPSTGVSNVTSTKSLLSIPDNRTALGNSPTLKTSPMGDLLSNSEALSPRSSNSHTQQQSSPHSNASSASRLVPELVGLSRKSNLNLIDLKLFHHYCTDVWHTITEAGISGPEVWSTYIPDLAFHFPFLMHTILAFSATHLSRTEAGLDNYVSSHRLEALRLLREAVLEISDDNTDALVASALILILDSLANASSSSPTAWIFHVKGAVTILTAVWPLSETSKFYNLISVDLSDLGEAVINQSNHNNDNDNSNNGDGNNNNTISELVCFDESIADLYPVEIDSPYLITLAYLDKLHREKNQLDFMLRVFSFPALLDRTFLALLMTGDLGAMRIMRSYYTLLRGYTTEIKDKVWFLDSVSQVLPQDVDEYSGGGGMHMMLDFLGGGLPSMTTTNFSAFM
# Test: PBM E-score (8-mer binding enrichment) (E-score (-0.5 to 0.5)); higher = stronger / more preferred TF binding; most listed sequences are background and not binding sites
# Conditions: protein concentration: 200 nM; construct: GST-full length
# Method in brief: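 Masliner-normalised scans of fluorescent anti-GST signal were the basis for scoring. That signal came from GST-tagged yeast transcription factors applied at about 100-200 nM to double-stranded universal all-10-mer Agilent arrays on fresh or once-stripped slides. Each ungapped eight-base word, pooled with its reverse complement, received an E-score from the Universal PBM Analysis Suite.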
row,Sequence,PBM E-score
1,GGGCGACC,-0.275
2,GCGGAACA,-0.109
3,AAATACAC,0.0558
4,CAACTGCA,-0.0388
5,CCTCAGGC,-0.144
6,CGATAAAA,0.165
7,ACCCTTAC,-0.0726
8,AACCTTGC,-0.313
9,CTTTCAAC,-0.118
10,ACATATGA,-0.103
11,GTCGTCCA,-0.168
12,CGGACTCC,-0.151
13,AGGGTTAG,-0.0174
14,AAGACCGG,-0.128
15,TATCCGCA,0.211
16,GAGAATCA,-0.102
17,CATGGGGA,-0.0766
18,ATTCCAGA,-0.109
19,GATGTCAA,-0.0401
20,AGTGCGGG,-0.05
21,CATGCTCC,-0.117
22,AGAACAGA,-0.0933
23,CTTTTGAC,-0.161
24,AGTACTAG,0.0292
25,CGACCAAG,0.121

row,Sequence,PBM E-score
1,TGGAAAAA,0.0283
2,CTCTTCAG,-0.058
3,CGTTTGTA,0.284
4,GCCGTTTA,0.421
5,CCTACGGA,-0.34
6,GAAGTGGC,-0.094
7,CCGACATC,0.0854
8,AGGCGCTG,-0.0209
9,ATGTTCAC,-0.144
10,AGACCTCC,-0.15
11,ACGTACGC,0.239
12,CAAGCATC,-0.184
13,ATCTGGTA,0.0716
14,GTAAGTTA,0.0233
15,CGTTATTA,0.236
16,ACAAGGAC,-0.227
17,CTCGTCTC,0.26
18,AGGGAATA,0.017
19,ATGCATGG,-0.124
20,TATATATA,0.199
21,CCGAGTGC,0.0849
22,CCCTTACA,-0.127
23,CATGTTCA,-0.299
24,AATCCTGA,-0.092
25,ATCGTTCG,0.373

row,Sequence,PBM E-score
1,GAGCCCTA,-0.115
2,ATTAGTAA,0.0849
3,CGTATACA,0.46
4,CACGAATC,0.0959
5,GCGTCGAC,-0.00773
6,CATCCATC,-0.107
7,GTTCTTGA,0.08
8,CTACATTC,-0.172
9,GCCCGTCA,-0.309
10,GGAAAACC,0.0891
11,CTATTCCC,-0.231
12,ATTGGGAA,0.132
13,TGCTTTAA,0.0315
14,GCGGCCCA,-0.0469
15,GACGTTCA,0.0272
16,AACGACTC,0.388
17,CAGCGCGC,-0.0315
18,ACCGGCAG,-0.137
19,CTGGAAAC,0.0868
20,GCTACACA,-0.162
21,AATGAATC,-0.0632
22,TAGAGCCA,-0.288
23,CATGAGTC,-0.0416
24,CACTTCTG,-0.291
25,CATTTTTA,-0.128

row,Sequence,PBM E-score
1,GCTACGAC,0.426
2,AGCTGCTA,-0.325
3,CACTAATC,0.124
4,CACACTTC,-0.188
5,AGTAGACA,0.0301
6,CATTGCCG,0.0206
7,CCCGTCAA,-0.176
8,GATGAATA,0.0442
9,AAACAGCT,-0.111
10,GAAGCAGA,-0.215
11,GAAGCCAC,0.101
12,AACCTAAA,0.0906
13,AGATGATA,-0.0184
14,GTGTCGAA,0.0332
15,CCGACTTA,0.0405
16,AACAAAGG,-0.139
17,CCACCACA,-0.164
18,AGAGTCAG,-0.111
19,ATTGTGTA,0.0188
20,AGCAGGAG,0.0144
21,AACCCTGG,-0.118
22,AGTGGGTG,-0.125
23,CCTTGACA,-0.243
24,CTTTTTGA,-0.151
25,ACATATCT,0.0439

row,Sequence,PBM E-score
1,CGCTGTTA,0.00882
2,AATGTGTG,-0.0594
3,ACTTAGCC,-0.252
4,GTCCGCAC,-0.0684
5,ACGGACGT,0.138
6,GATGAGCA,-0.0705
7,CAATTGCA,-0.125
8,CACAAAGC,-0.126
9,AATAGAAA,-0.112
10,ACAAGCAG,-0.204
11,CACTTGCG,-0.0631
12,ATGTGCGC,-0.14
13,CGGCTTCA,-0.00366
14,CAGTGGAG,-0.165
15,CCCGACCA,0.00072
16,CGCTCGGC,0.141
17,AGGCGTAG,-0.177
18,CCACCTTC,-0.13
19,CCCCGCAA,0.0748
20,CCTCTCAA,-0.127
21,CAGTGAGG,-0.352
22,GGTTCGAA,0.182
23,AGTCCCAT,-0.253
24,TCTGTCCA,-0.187
25,CGGATTTC,0.0823

row,Sequence,PBM E-score
1,GAACCCTA,-0.123
2,AGAGTTTC,-0.102
3,CAGGAGTA,-0.0878
4,TCAGGGGA,-0.136
5,AAATCTCG,0.25
6,ACTTTGCA,0.052
7,ACCGATCA,0.0381
8,CCAGCCTA,-0.257
9,CCGTGTTC,0.0114
10,TACTCAAA,-0.0956
11,ATTGGTAC,0.169
12,TACATGCA,0.161
13,AACGAATC,0.387
14,CCCTTCCA,-0.32
15,ACGATATC,0.351
16,GATTGAAC,0.124
17,ACCCAACT,-0.0741
18,CAAAAACA,0.0232
19,AATGCTCG,0.204
20,AACCCCGC,-0.0105
21,CAATAAAC,0.173
22,AATTGTTA,-0.0477
23,ACGAGAAA,0.375
24,AAGTCCCG,-0.0221
25,AAATTGTC,-0.0797

row,Sequence,PBM E-score
1,AGCTTTGC,-0.0944
2,AAGTTAAT,-0.0998
3,ACATATCC,-0.103
4,TAGATGCA,-0.0338
5,GAGCCTCC,-0.0561
6,ACTGTTCC,-0.0468
7,AGTCGCGG,0.00929
8,CACTAGAG,-0.148
9,TGCGGAAA,0.0553
10,ACGTTACA,0.014
11,AACAGCGG,-0.0757
12,CGGGCTAG,-0.133
13,GGTGGAAC,0.236
14,TCTCGAAA,0.107
15,CTCTACAA,-0.0288
16,GGGTCAGA,-0.0187
17,AGATACAA,0.0164
18,AAGCGGGA,0.0519
19,ACAGCGGA,-0.144
20,CCAACTGC,-0.173
21,CACCGAGA,-0.0035
22,AACCGCAC,0.0331
